The target of experiment [1] is T1, human CD22 (human, UniProt P20273 20-847).
T1 construct: whole, on cells; also called hu CD22
T1 sequence (looked up): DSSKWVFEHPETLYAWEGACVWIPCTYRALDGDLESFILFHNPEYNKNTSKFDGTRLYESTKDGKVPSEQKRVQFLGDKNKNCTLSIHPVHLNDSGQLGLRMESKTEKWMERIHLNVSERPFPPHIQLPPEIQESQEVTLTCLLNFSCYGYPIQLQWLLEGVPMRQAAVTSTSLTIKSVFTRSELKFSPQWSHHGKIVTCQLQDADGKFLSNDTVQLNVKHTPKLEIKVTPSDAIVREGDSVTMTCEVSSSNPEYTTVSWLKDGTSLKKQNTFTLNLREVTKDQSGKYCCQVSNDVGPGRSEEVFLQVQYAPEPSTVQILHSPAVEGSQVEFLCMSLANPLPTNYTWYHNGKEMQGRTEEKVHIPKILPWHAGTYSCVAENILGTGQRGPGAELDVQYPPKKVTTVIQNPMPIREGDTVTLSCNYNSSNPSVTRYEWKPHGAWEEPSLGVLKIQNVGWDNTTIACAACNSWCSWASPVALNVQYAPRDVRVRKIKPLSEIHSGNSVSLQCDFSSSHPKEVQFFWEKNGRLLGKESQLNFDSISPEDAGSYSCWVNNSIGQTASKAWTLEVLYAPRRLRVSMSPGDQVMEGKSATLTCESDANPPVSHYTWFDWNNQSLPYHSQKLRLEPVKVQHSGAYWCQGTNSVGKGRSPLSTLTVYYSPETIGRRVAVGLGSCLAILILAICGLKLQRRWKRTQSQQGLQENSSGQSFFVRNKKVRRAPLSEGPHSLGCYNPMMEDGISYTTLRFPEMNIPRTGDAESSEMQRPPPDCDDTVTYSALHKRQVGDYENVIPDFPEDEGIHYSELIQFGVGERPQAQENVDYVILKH
The experiment is described as follows: flow cytometry on CHO cells expressing human CD22, one site-specific binding fit, mean of three. The method, then:
(§1) Cell-based affinity of CD20 CD22 dual targeting antigen-binding molecules was determined by nonlinear regression (one site—specific binding) analysis. CHO cells expressing human CD20, cyno CD20, human CD22 or cyno CD22 were incubated with decreasing concentrations of CD20 CD22 dual targeting antigen-binding molecules (up to 800 nM, step 1:2 or 1:3, 11 steps) for 16 h at 4° C. Bound CD20 CD22 dual targeting antigen-binding molecules were detected with Alexa Fluor 488-conjugated AffiniPure Fab Fragment Goat Anti-Human IgG (H+L). Fixed cells were stained with DRAQ5, Far-Red Fluorescent Live-Cell Permeant DNA Dye and signals were detected by fluorescence cytometry. Respective equilibrium dissociation constant (Kd) values were calculated with the one site specific binding evaluation tool of the GraphPad Prism software. Mean Kd values and affinity gaps were calculated with Microsoft Excel.
(§2) Cell-based affinities of CD20 CD22 dual targeting antigen-binding molecules on target-transfected CHO cells were determined by nonlinear regression (one site—specific binding) analysis. Mean Kd values were calculated from three independent measurements. Affinity gaps were determined by dividing the cyno Kd by the human Kd.
In general terms: A flow cytometer gives signals particle by particle.

Experiment [2] addresses T2, human CD20 (human, UniProt P11836 1-297).
T2 construct: whole, on cells; also called hu CD20; B-lymphocyte antigen CD20
T2 sequence (looked up): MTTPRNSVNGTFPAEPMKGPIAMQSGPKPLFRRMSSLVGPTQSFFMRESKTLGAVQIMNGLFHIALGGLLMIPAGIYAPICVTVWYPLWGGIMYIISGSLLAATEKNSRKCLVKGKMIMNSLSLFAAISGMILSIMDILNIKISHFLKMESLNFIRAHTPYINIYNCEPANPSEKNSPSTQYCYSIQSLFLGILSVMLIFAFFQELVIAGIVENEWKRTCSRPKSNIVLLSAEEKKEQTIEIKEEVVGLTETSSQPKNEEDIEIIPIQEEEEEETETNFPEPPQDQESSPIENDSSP
Description: flow cytometry on CHO cells expressing human CD20, one site-specific binding fit, mean of three. The method, then:
as §1, §2

Experiment [3] concerns the target T3, cyno CD20 (cyno, UniProt M4ZHZ6 1-297).
T3 construct: whole, on cells; also called cy CD20
T3 sequence: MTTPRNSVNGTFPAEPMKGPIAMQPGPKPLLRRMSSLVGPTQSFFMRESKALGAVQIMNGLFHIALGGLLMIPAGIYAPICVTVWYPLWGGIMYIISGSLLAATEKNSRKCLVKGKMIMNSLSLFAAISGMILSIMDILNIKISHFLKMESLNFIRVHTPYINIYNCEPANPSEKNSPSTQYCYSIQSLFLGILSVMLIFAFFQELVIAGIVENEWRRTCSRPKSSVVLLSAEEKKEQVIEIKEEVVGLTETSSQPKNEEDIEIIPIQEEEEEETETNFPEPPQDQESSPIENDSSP
The experiment is described as follows: cyno Kd divided by human Kd, cell-based affinity on CHO cells. As for the experimental part:
as §1, §2

For experiment [4], the target named is T4, cyno CD22 (cyno).
T4 construct: whole, on cells; also called cy CD22
Described as above. As for the experimental part:
as §1, §2

The target in experiment [5] is T3, cyno CD20. Description: flow cytometry on CHO cells expressing cyno CD20, one site-specific binding fit, mean of three. As for the experimental part: as §1, §2
Experiment [6] has as its target T1, human CD22. The experiment is described as follows: cell-based or functional assay.
Experiment [7] deals with T2, human CD20. The experiment is described as follows: cell-based or functional assay.
The target of experiment [8] is T4, cyno CD22. The experiment is described as follows: flow cytometry on CHO cells expressing cyno CD22, one site-specific binding fit, mean of three. As for the experimental part: as §1, §2

B1: CD20 82-A3 CC × CD22 43-F7 CC × I2E × scFc (Z7Q) (bispecific antibody)
chain: EVQLVESGGGLVQPDRSLRLSCAASGFTFRDYAMHWVRQAPGKCLEWVSGIAWNSDSIGYADSVKGRFTISRDNAKNSLFLQMHSLRPEDTALYFCAKDTLYGSGSPRAFDIWGQGTMVTVSSGGGGSGGGGSGGGGSEIVLTQSPATLSVSPGERATLSCRASQSVNNNLAWYQQKPGQAPRLLIYGASTRATGIPARFSGSGSGTEFTLTISRLEPEDFAVYYCQQSNNWPITFGCGTRLEIKSGGGGSQVQLVQSGGEVKKPGASVKVSCKASGYTFTSYGISWVRQAPGQCLEWMGWISPQTGNAIYAQKLQGRVTMTRDTSTSTAYMELRSLRSDDTAVYYCARDPDYYGSGSYSDYWGQGTLVTVSSGGGGSGGGGSGGGGSEIVLTQSPATLSVSPGERATLSCRASQSVSSNLAWYQQKPGQAPRLLIYGASSRATGIPARFSGSGSGTEFTLTISSLQSEDFAVYYCQQYHSWPLLTFGCGTKVEIKSGGGGSEVQLVESGGGLVQPGGSLKLSCAASGFTFNKYAINWVRQAPGKGLEWVARIRSKYNNYATYYADAVKDRFTISRDDSKNTVYLQMNNLKTEDTAVYYCARAGNFGSSYISYWAYWGQGTLVTVSSGGGGSGGGGSGGGGSQTVVTQEPSLTVSPGGTVTIT[in this place about 80 residues]FGSGTKLTVLGGGG[in this place human IgG1 Fc with R292C N297G V302C (EU numbers)]GGGGSGGGGSGGGGSGGGGSGGGGSGGGGS[in this place human IgG1 Fc with R292C N297G V302C (EU numbers)]
notes: Single chain: anti-CD20 scFv, anti-CD22 scFv, anti-CD3 scFv (I2E), scFc; also called 35181-1
On to B1, for which the Kd in experiment [1] amounted to 330 pM; in experiment [2], 1400 pM; in experiment [5], 2080 pM; in experiment [8], 3390 pM. For the same molecule, the “Affinity gap Kdcy/Kdhu CD20” value in experiment [3] amounted to 1.49. Further, the “Affinity gap Kdcy/Kdhu CD22” value in experiment [4] came to 10.3. Besides, the “EC50, 48-hour FACS based cytotoxicity assay, Oci-Ly 1 CD20 k.o. #A5” value in experiment [6] turned out to be 11 pM. Further, the “EC50, 48-hour FACS based cytotoxicity assay, Oci-Ly 1 CD22 k.o. #A1” value in experiment [7] turned out to be 0.23 pM.

B2: CD20 82-A3 CC × CD22 44-A8 CC × I2E × scFc (J1E) (bispecific antibody)
chain: EVQLVESGGGLVQPDRSLRLSCAASGFTFRDYAMHWVRQAPGKCLEWVSGIAWNSDSIGYADSVKGRFTISRDNAKNSLFLQMHSLRPEDTALYFCAKDTLYGSGSPRAFDIWGQGTMVTVSSGGGGSGGGGSGGGGSEIVLTQSPATLSVSPGERATLSCRASQSVNNNLAWYQQKPGQAPRLLIYGASTRATGIPARFSGSGSGTEFTLTISRLEPEDFAVYYCQQSNNWPITFGCGTRLEIKSGGGGSQVQLVQSGAEVKKPGASVKVSCKASGYTFTSYGISWVRQAPGQCLEWMGWISAYNGNAIYAQKLQGRVTMTRDTSTSTAYMELRSLRSDDTAVYYCARDPDYYGSGSYSDYWGQGTLVTVSSGGGGSGGGGSGGGGSEIVLTQSPATLSVSPGERATLSCRASQSVSSNLAWYQQKPGQAPRLLIYGASSRATGIPARFSGSGSGTEFTLTISSLQSEDFAVYYCQQYHSWPILHFGCGTKVEIKSGGGGSEVQLVESGGGLVQPGGSLKLSCAASGFTFNKYAINWVRQAPGKGLEWVARIRSKYNNYATYYADAVKDRFTISRDDSKNTVYLQMNNLKTEDTAVYYCARAGNFGSSYISYWAYWGQGTLVTVSSGGGGSGGGGSGGGGSQTVVTQEPSLTVSPGGTVTIT[in this place about 80 residues]FGSGTKLTVLGGGG[in this place human IgG1 Fc with R292C N297G V302C (EU numbers)]GGGGSGGGGSGGGGSGGGGSGGGGSGGGGS[in this place human IgG1 Fc with R292C N297G V302C (EU numbers)]
notes: Single chain: anti-CD20 scFv, anti-CD22 scFv, anti-CD3 scFv (I2E), scFc
Consider B2, for which the equilibrium dissociation constant (Kd) in experiment [1] was found to be 160 pM; in experiment [2] it was 850 pM; in experiment [5], 1040 pM; in experiment [8], 2750 pM. The “Affinity gap Kdcy/Kdhu CD20” value in experiment [3] came out at 1.22. Besides, the “Affinity gap Kdcy/Kdhu CD22” value in experiment [4] was 17.2. In addition, the “EC50, 48-hour FACS based cytotoxicity assay, Oci-Ly 1 CD20 k.o. #A5” value in experiment [6] came to 5.5 pM. The “EC50, 48-hour FACS based cytotoxicity assay, Oci-Ly 1 CD22 k.o. #A1” value in experiment [7] came to 0.22 pM.

Usually Kd stands for the constant that tells how readily two partners part at equilibrium. A high value points to lower affinity.

These data come from patent US20240384006A1 (Amgen, published 2024).
